B1: LINE1-mini (parent)
chain: GGCAGAGCUCAACACAGCGUGGCAAAGUGGCUGUGGCUAGACUGCC

Read counts are not given, so values of variants with three or more changes are uncertain.

From the RNAGym collection of RNA variant scans (doi:10.7554/elife.90254) come the findings set out here.

The variants in the data set derive from B1. The experiment in a line: self-cleavage, relative activity (ratio to wild type); higher = more cleavage; in vitro, sequencing; the parent is a self-cleaving ribozyme.
For the variant G2U C3G G22A, the self-cleavage came out at 0.35.
The value for G2U A6G C31U was 0.03.
In the case of C3A A4G G5U, the self-cleavage worked out at 0.37.
In the case of G2U U9A A25C G33U C45A it was 0.07; in that of G2U C15U U28A G29U U38A C46U, 0.11.
The value for G2U C8A U28C was 0.04.
The value for G2U G30A C37A C42U was 0; that for G2U G22C G40U C42U was 0.13.
As to G2U C3A A14U C23U C42A, the self-cleavage came to 0.25.
The value for G2U C10A U32G was 0.01.
As for G2U C23A G30C A39C, the self-cleavage came out at 0.03.
In the case of G2U C15G G22A A39U U43C it was 0; in that of G2U C15A C18U C31U U32G C42U G44A, 0.03; in that of G2U A4G C31A, 0.01.
Consider G2U C13U C31U, for which the self-cleavage was 0.02.
In the case of G2U C15U C45A it was 0.14; in that of G2U U9C C18A G40A, 0.01; in that of G2U C10G A11C G30U G35C C45G, 0.
The value for G2U G7U G17A G40U was 0.04.
The value for G2U C3U U9C G19U G21U G29C C31U was 0.01; that for G2U C13U U43C was 0; that for G2U U9G C15G was 0.02.
For the variant G2U U32G U38A, the self-cleavage was 0.03.
The value for G2U A4G G7U A12G C42A was 0.11.
Consider G2C U32G G33A C37A C42U G44U, for which the self-cleavage worked out at 0.05.
In the case of G2U C10G G30A G33U U34A A41G C42A G44C it was 0; in that of G2U A11C C23A G33C G36U, 0.01; in that of G2C U20A A26U G44A, 0.05.
The value for G2U A4G G30C A41C was 0.09; that for G2C U20A C23A was 0.12; that for G2U G5A G27U U38A was 0.09.
The value for G2U C13G A14C was 0.02; that for G2U C13U A14C G21C G27C G30A G33A was 0.03.
In the case of G2U A6G G7U G35C, the self-cleavage amounted to 0.1.
In the case of G2U U20C G22U G36A it was 0.02; in that of C3A A4C C8G U20C G36A C37U U38C, 0.02; in that of G2C U20A C23U G35C U38G, 0.07.
The value for G2C U20G C23U was 0.12; that for G2U G19U C31A was 0.01.
In the case of G2U C18A A24G G36U C45U it was 0.02; in that of G2U C18U G22C A24C A26G G44U, 0.03; in that of C3A A4G G17A G44C, 0.02.
With C3A A4C G21U U43C, the self-cleavage came out at 0.03.
In the case of G2U C15U G17U G33U it was 0.02.
In the case of G2U A12C C15A G29U G33C G36C A39G it was 0; in that of G2U A6G G21C G27U, 0.19.
In the case of G2U C18G A24G it was 0; in that of G2U C8G U20G, 0.1.
In the case of C3A A4C G19C C37G, the self-cleavage amounted to 0.01.
G2U C10G U28A U38C: the self-cleavage turned out to be 0.02.
The value for G2U A6C A16U G33A was 0.05; that for G2U C8U A24C U43A C45A was 0.05.
As for G2U A4C G5C G33A C45G, the self-cleavage came to 0.01.
In the case of G2U G7A G27U C31G it was 0.02.
In the case of G2U A14G G21U it was 0.1.
The value for G2U C15A G19A U43G was 0; that for G2U U9G G21U C31U was 0.01.
For the variant C3A A4U A24U, the self-cleavage worked out at 1.73.
The value for G2U G7A G36A was 0.11; that for G2U C15A C45U was 0.03; that for G2U C10A A16G G27U was 0.01.
Consider G2U G17A G22U G29A C31A, for which the self-cleavage was 0.07.
In the case of G2U C18A G19U U20C it was 0.04; in that of G2U G5C G7A C10U C13U A14C U32G G36A C42G, 0.05; in that of G2U G17U C46A, 0.
The value for G2U C8G A26U was 0.04; that for G2U A4C C13U G35U was 0.05.
In the case of G2U A16C G36C, the self-cleavage amounted to 0.02.
The value for G2U C13U G19U C23U A39U was 0.03; that for G2U A6U G17A G19U G29U G40C was 0.03.
The value for G2U C3U A25U G27A was 0.3; that for G2U C23G U43C was 0.05.
The value for G2U C13U A14C A26C was 0.01; that for G2U G5C G44C C45A was 0.01.
Regarding G2U C3U C31A G36U, the self-cleavage came out at 0.06.
Regarding G2U U32A A39G, the self-cleavage worked out at 0.
The value for G2U A26C G29C A41U was 0.09; that for C3A A4G C13A C18U A25G G36A was 0.07.
In the case of G2U G19U A39U it was 0.02; in that of G2U U20C G22C G33U, 0.
G2U C18A U43G C45G: the self-cleavage was 0.01.
In the case of G2U G27U C45G it was 0.03; in that of G2U G5A C8U A41G, 0.06; in that of G2U C13U C23A C45U, 0.02.
In the case of C3A A4C G19U G29U it was 0.13.
The value for G2U A11C C15U A25G U38C was 0.
As to G2U A6U U20C A24U, the self-cleavage came to 0.13.
In the case of G2U C23U U28A C37A C42G it was 0.03; in that of G2U G5C A6G C10U G27A G36A, 0.02.
As to C3A A4G A26C G33U, the self-cleavage is 0.04.
On to G2U A6U U9G C10U A16G C37U G40A, for which the self-cleavage was 0.01.
For the variant G2U G19U G27A G30C, the self-cleavage was determined as 0.15.
The value for G2U C15G C18A G19U was 0.05.
In the case of G2U A4G G17C G27C U43G it was 0.01.
In the case of G2C U34C G44U it was 0.05; in that of G2U C10G G30A C31G, 0.01; in that of G2U C8G A12U C13A, 0.03.
On to G2U C3U G5U C18U A26U, for which the self-cleavage stood at 0.05.
In the case of G2U A4C G17U it was 0.05.
The value for G2U G27A C31G was 0.01; that for G2U A4G C18A A24C G30U was 0.14; that for G2U C13A A14C G29A was 0.02.
Regarding G2U G17C G36U, the self-cleavage amounted to 0.03.
The value for G2U G21U U43A was 0.02; that for G2U C8U G17C G33C was 0.01.
In the case of G2U A12U G22U A26U it was 0.13.
In the case of G2U G27U G30A A41C U43G C45U it was 0.02.
Turning to G2C U32C C37U, the self-cleavage was determined as 0.01.
In the case of G2U A39C G40A it was 0.05; in that of G2U A24G G27A U38G, 0.01; in that of C3A A4U A6U, 0.1.
The value for G2U C10G A41G G44A was 0.02.
For G2U G17A G33A C45A, the self-cleavage was 0.01.
Take G2U C23U A24G A26U A41U G44A C45A: the self-cleavage was found to be 0.01.
Take G2U A14U A16U: the self-cleavage turned out to be 0.01.
Consider G2U A14U A16G, for which the self-cleavage worked out at 0.01.
The value for G2U A6G A25C G35U was 0.04.
The value for G2U C15U C23G G35C C37A was 0.02; that for G2U A4G G19A U38G C45U was 0.01; that for G2U C3G C8A C37U was 0.13.
The value for G2U A6C A12U C13A G21U A25C A41C was 0.03; that for G2U C10U A26G U28C G33A was 0.01; that for C3A A4G C8A C10G A26C C31G G35A was 0.01.
On to G2U A4C C18A C45A, for which the self-cleavage stood at 0.02.
The value for G2U G7C G22U was 0.04; that for G2U G19U U38A was 0.13; that for G2U G17A A25U U34G was 0.
For the variant G2U A4G G7U C31A, the self-cleavage turned out to be 0.12.
In the case of G2U A24U C42G it was 0.02.
In the case of G2U G5C C23G C31U it was 0.01; in that of G2U G17A G44U, 0.03.
As for G2U A6G G21A G36A, the self-cleavage was found to be 0.01.
Consider G2U G5A A6G C45G, for which the self-cleavage worked out at 0.06.
The value for G2U C18U C23U C46U was 0.04.
In the case of G2U G19U A25C G44U it was 0.02.
In the case of G2U C15U A16C C45G it was 0.01; in that of G2U C3U G7U A12G C13G C45G, 0.02.
For G2U A4G U9A C15U G27C, the self-cleavage came out at 0.11.
In the case of G2U C3G C23U C31U G40C A41C C42G U43G it was 0.01; in that of G2U A14U G21C G33C G35U, 0.01; in that of C3A A4G A12G G21C G22A U28G, 0.01.
The value for G2U G40C U43A was 0.05; that for C3A A4U C10A G22A U43A was 0.02; that for G2U U9C A25G C46A was 0.02.
The value for G2U G30C G36U was 0.07; that for G2U U9A G21C was 0.04.
In the case of G2U C18A G21U, the self-cleavage was found to be 0.
In the case of G2U C10G G17U G33C it was 0.01; in that of G2U C23G G36A, 0.02; in that of G2U C10U C18A G22C A25C, 0.
The value for G2U C13G C18U A39C was 0.03; that for G2U U20G U34C was 0.06; that for G2U C8U U9A G30U was 0.04.
For the variant G2U C8G C23U, the self-cleavage was determined as 0.02.
Turning to G2U C15G A16G U28G, the self-cleavage was 0.01.
The value for G2U A24U U32C G35U was 0.05; that for G2U A26G U34C G35U G36A C37A was 0.01.
In the case of G2U U9G C10G A14C U32A C42A it was 0; in that of G2U A6G U34G U38C A39G C45G, 0.
The value for G2U G7C U9G was 0.02; that for G2U G33C C46U was 0.03; that for G2U C18G U20A G29C was 0.03.
Consider G2U G5U C42G, for which the self-cleavage was 0.03.
The value for G2U C10U G27C was 0.
In the case of G2U C10U C18U A26U it was 0.02; in that of G2U A6U C8A, 0.03.
In the case of G2U A4U G7C C23G it was 0.05.
